T1: GST-G1NC_(short) (GST-fused truncated cytosolic domain of rat GIRK1, a.a. 41-63, 190-371) (rat, UniProt P63251)
T1 chain: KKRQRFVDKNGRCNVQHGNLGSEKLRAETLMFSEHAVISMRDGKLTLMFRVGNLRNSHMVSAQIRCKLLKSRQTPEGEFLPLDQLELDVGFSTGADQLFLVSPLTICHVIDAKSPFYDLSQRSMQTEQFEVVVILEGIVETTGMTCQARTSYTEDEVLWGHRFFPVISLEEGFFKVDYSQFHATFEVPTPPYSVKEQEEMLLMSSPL

B1: Gβ1(I80N)γ2 (bovine Gβ1 I80N co-translated with bovine Gγ2) (complex)
chain 1: not shown
chain 2: not shown
B2: Gβ1(K78R)γ2 (bovine Gβ1 K78R co-translated with bovine Gγ2) (complex)
chain 1: not shown
chain 2: not shown
B3: Gβ1(I80T)γ2 (bovine Gβ1 I80T co-translated with bovine Gγ2) (complex)
chain 1: not shown
chain 2: not shown

Molecular target: T1, GST-G1NC_(short) (GST-fused truncated …)
Experiment: pull-down

| reduction of binding relative to wt Gβγ [%] | Binder |
| --- | --- |
| ~50 | B1 |
| ~50 | B2 |
| ~50 | B3 |

From paper PMC8426278 (iScience, 2021)
